Laboratory results from paper PMC10668032.
Some of the results follow. At the low end of the ranking, values are background and their order means little.

What follows are sequences tested against SIX1-Q177R homeodomain (UniProt Q15475) (assay: universal protein binding microarray). Details: Universal all-10-mer PBM (8x60K, AMADID 030236), 300 nM GST-tagged protein, Alexa Fluor 488 anti-GST; buffer, salt, pH and temperature not stated; high values mean tight binding; most listed sequences are background and not binding sites; double strand, one strand shown.
With ATGCTAAG the binding signal was -0.304 E-score.
CGTAGGGC was tested, and the binding signal was -0.105 E-score.
In the case of GGGTCGAA, the binding signal is reported as 0.182 E-score.
GTTGCCAA showed a binding signal of -0.117 E-score.
In the case of CCTGATAG, the binding signal is reported as -0.153 E-score.
With CGCTATAA the binding signal was -0.279 E-score.
Work on CCGCTGCG yielded a binding signal of -0.166 E-score.
GAGTTGAC gave a binding signal of -0.0347 E-score.
Sequence CATTACGA has a binding signal of -0.108 E-score.
ATACCGGG showed a binding signal of 0.213 E-score.
For GCCTACGA, the binding signal was -0.0683 E-score.
TCGAAGAA showed a binding signal of -0.0854 E-score.
With AGGGGCTA the binding signal was 0.0301 E-score.
AACCAACG was tested, and the binding signal was 0.0488 E-score.
ACAGGTTG gave a binding signal of -0.108 E-score.
AACTGATT showed a binding signal of -0.13 E-score.
Work on AATACCAG yielded a binding signal of 0.0976 E-score.
In the case of CAGGCCAC, the binding signal is reported as -0.197 E-score.
CACACTAA showed a binding signal of 0.204 E-score.
CCAAGCCA was tested, and the binding signal was 0.0378 E-score.
Sequence CAACGCTG has a binding signal of -0.171 E-score.
For CCATTACG, the binding signal was -0.0272 E-score.
In the case of CCACGCCA, the binding signal is reported as -0.133 E-score.
With GAGGCGTA the binding signal was 0.135 E-score.
In the case of GGAGGTGA, the binding signal is reported as -0.047 E-score.
Work on AATTCCTG yielded a binding signal of -0.127 E-score.
CGGTGGGC showed a binding signal of -0.216 E-score.
CTCCGTGA gave a binding signal of -0.0297 E-score.
For GATGCAGA, the binding signal was -0.174 E-score.
With ACGGAAAA the binding signal was -0.259 E-score.
Work on CCGCGTGA yielded a binding signal of -0.109 E-score.
AGCACCAG showed a binding signal of 0.247 E-score.
In the case of AAATGAAG, the binding signal is reported as -0.105 E-score.
ACTTTGCT showed a binding signal of -0.147 E-score.
ATCGGATC showed a binding signal of 0.105 E-score.
For ATCAATTG, the binding signal was -0.136 E-score.
ACCACGCA was tested, and the binding signal was 0.24 E-score.
GCTCCGGA showed a binding signal of 0.0233 E-score.
For GTGAGGCA, the binding signal was -0.128 E-score.
CTGGGAGC gave a binding signal of 0.0579 E-score.
Sequence CGGACTCA has a binding signal of -0.0505 E-score.
Sequence ACCTGGGA has a binding signal of 0.186 E-score.
In the case of AGGGAGAC, the binding signal is reported as 0.0532 E-score.
CCGTAGGC was tested, and the binding signal was -0.224 E-score.
AAAGCGGT was tested, and the binding signal was -0.0763 E-score.
With AGGTGTCG the binding signal was 0.479 E-score.
AAAGTGAA was tested, and the binding signal was -0.174 E-score.
Sequence CACTCGAG has a binding signal of 0.172 E-score.
AGTTCCAC showed a binding signal of -0.159 E-score.
For CCCTCTGA, the binding signal was 0.153 E-score.
CGGGTTGA showed a binding signal of 0.0878 E-score.
For CAGGTTTA, the binding signal was -0.00154 E-score.
With AGACGGCT the binding signal was -0.103 E-score.
For ATTCCCAC, the binding signal was 0.0314 E-score.
In the case of ACAAGACA, the binding signal is reported as 0.111 E-score.
In the case of TCCTCCAA, the binding signal is reported as 0.0978 E-score.
In the case of AACCCCGG, the binding signal is reported as 0.265 E-score.
ATGGCGAC was tested, and the binding signal was -0.107 E-score.
In the case of CGTTCCTC, the binding signal is reported as -0.096 E-score.
ATCAGGGC was tested, and the binding signal was -0.132 E-score.
GCACAGGA showed a binding signal of 0.0617 E-score.
With GCTTAGCA the binding signal was -0.3 E-score.
CTACTTCA gave a binding signal of -0.0371 E-score.
With AGTAGTTA the binding signal was 0.0062 E-score.
ACATGTAG was tested, and the binding signal was 0.013 E-score.
For CAAATCTA, the binding signal was 0.046 E-score.
With TGAGCGCA the binding signal was -0.0968 E-score.
Sequence CAAACTTG has a binding signal of -0.217 E-score.
Sequence ACTGCTAA has a binding signal of -0.137 E-score.
In the case of TCAGCCAA, the binding signal is reported as -0.147 E-score.
Work on CTTGAGAC yielded a binding signal of -0.0213 E-score.
In the case of AACCCCGC, the binding signal is reported as 0.194 E-score.
ATAACTGG showed a binding signal of -0.142 E-score.
Work on CGCCTAAA yielded a binding signal of 0.0746 E-score.
CACGGGGA gave a binding signal of 0.199 E-score.
CGCACTAG gave a binding signal of 0.0426 E-score.
TGTGTTAA showed a binding signal of 0.171 E-score.
Sequence TGGAGCAA has a binding signal of -0.141 E-score.
For CAAAGGAG, the binding signal was -0.181 E-score.
ACACCGTG gave a binding signal of 0.472 E-score.
Work on GAGGAGCA yielded a binding signal of -0.264 E-score.
AGGGCCCC showed a binding signal of -0.21 E-score.
CCCCCCAC showed a binding signal of 0.0982 E-score.
For GAGCTGCA, the binding signal was -0.28 E-score.
With ACGCGATG the binding signal was 0.0393 E-score.
Sequence TGAGTACA has a binding signal of 0.0496 E-score.
In the case of CCCGGCCA, the binding signal is reported as 0.124 E-score.
With TATGTAAA the binding signal was -0.136 E-score.
AGGCATTC was tested, and the binding signal was -0.095 E-score.
TGTCAGAA was tested, and the binding signal was 0.183 E-score.
CATTCCAA gave a binding signal of -0.114 E-score.
CCCGGAGG showed a binding signal of 0.121 E-score.
With AGGAGCTG the binding signal was -0.0204 E-score.
Sequence CATTTACG has a binding signal of 0.0286 E-score.
In the case of CGGAGACG, the binding signal is reported as 0.138 E-score.
CTTACTGC showed a binding signal of -0.167 E-score.
ACCAGACA was tested, and the binding signal was 0.234 E-score.
In the case of TGTGGAAA, the binding signal is reported as -0.0857 E-score.
AAGTACTT was tested, and the binding signal was -0.219 E-score.
For GATGGATA, the binding signal was -0.0006 E-score.
GCCAGGTA was tested, and the binding signal was -0.0382 E-score.
In the case of CTCTCCAG, the binding signal is reported as -0.113 E-score.
ACGGACCA gave a binding signal of -0.155 E-score.
ACACTGAA gave a binding signal of 0.349 E-score.
For ATACGGCG, the binding signal was -0.0354 E-score.
With AGAGCGGG the binding signal was -0.0404 E-score.
In the case of TAGAAATA, the binding signal is reported as -0.174 E-score.
With CGGTATTC the binding signal was 0.0602 E-score.
For GGACTGAC, the binding signal was -0.127 E-score.
For AGAGTGGA, the binding signal was 0.0849 E-score.
TACGGGAA was tested, and the binding signal was 0.0745 E-score.
TACGGTAA showed a binding signal of -0.12 E-score.
AACCAGCA showed a binding signal of -0.0764 E-score.
With CACGACTG the binding signal was 0.19 E-score.
GCCCTTGA gave a binding signal of -0.0537 E-score.
CATCGCAG gave a binding signal of -0.0432 E-score.
Work on CCGTGCCC yielded a binding signal of 0.123 E-score.
Sequence CGCTGTCA has a binding signal of -0.235 E-score.
In the case of AATATACC, the binding signal is reported as -0.0841 E-score.
For CGTACCCA, the binding signal was 0.0716 E-score.
With GATGGGGA the binding signal was 0.0927 E-score.
In the case of CAACCTCA, the binding signal is reported as 0.0213 E-score.
CAGGCATA gave a binding signal of -0.117 E-score.
With AATTTAGT the binding signal was -0.0564 E-score.
Sequence CTGATAAA has a binding signal of -0.0381 E-score.
With CGCCGGAA the binding signal was -0.197 E-score.
With ATTCGTAC the binding signal was -0.0214 E-score.
Sequence CTTCATCC has a binding signal of -0.254 E-score.
ACTCGTCG gave a binding signal of -0.0565 E-score.
GTAAACTA was tested, and the binding signal was -0.0676 E-score.
For AGTAACAC, the binding signal was 0.424 E-score.
TACGCACA was tested, and the binding signal was -0.124 E-score.
With GGCATCTA the binding signal was -0.115 E-score.
In the case of GGCGCTTA, the binding signal is reported as -0.123 E-score.
In the case of AGTTGTGC, the binding signal is reported as 0.0318 E-score.
AGCCAAAA gave a binding signal of -0.211 E-score.
In the case of CTGCTGCA, the binding signal is reported as 0.0441 E-score.
Work on CAATGCGC yielded a binding signal of -0.0954 E-score.
GTTAAAAA was tested, and the binding signal was -0.0664 E-score.
CAGTCACG was tested, and the binding signal was -0.0985 E-score.
With AAGTAGCC the binding signal was -0.273 E-score.
TCAACTCA was tested, and the binding signal was -0.257 E-score.
Sequence CTTTTACA has a binding signal of 0.17 E-score.
Work on ATTAGGTC yielded a binding signal of -0.286 E-score.
GCTGCCCA was tested, and the binding signal was -0.0261 E-score.
AGAAAGGC gave a binding signal of -0.321 E-score.
AGCCGATC gave a binding signal of 0.024 E-score.
AATACTAG showed a binding signal of -0.0474 E-score.
Sequence CCACCCTC has a binding signal of 0.128 E-score.
Work on AGGGCGGC yielded a binding signal of -0.165 E-score.
Sequence ACGAGTCC has a binding signal of -0.0848 E-score.
CATGGCAA showed a binding signal of -0.336 E-score.
ATCAGAAA gave a binding signal of -0.0539 E-score.
With TATACCGA the binding signal was -0.044 E-score.
In the case of AACCAAGC, the binding signal is reported as -0.185 E-score.
With CATTAACC the binding signal was 0.066 E-score.
With GCGCGGTA the binding signal was 0.108 E-score.
AAACCTCG gave a binding signal of -0.0813 E-score.
For AAAGGTGG, the binding signal was -0.184 E-score.
GAGGACAC was tested, and the binding signal was 0.401 E-score.
For ACTTTTTC, the binding signal was -0.012 E-score.
AATGAAAC gave a binding signal of -0.0654 E-score.
CGGTACCC gave a binding signal of 0.103 E-score.
With CTGATTAA the binding signal was -0.18 E-score.
Sequence GGGAGAGA has a binding signal of -0.174 E-score.
TGATTCCA was tested, and the binding signal was 0.0627 E-score.
With GTGCTGAA the binding signal was -0.0358 E-score.
CCGAACGG showed a binding signal of 0.117 E-score.
For GGATGCCC, the binding signal was -0.0827 E-score.
For AAGCGCAG, the binding signal was -0.199 E-score.
Work on AAAACTTC yielded a binding signal of -0.12 E-score.
ATGACGCG showed a binding signal of 0.0471 E-score.
